Assay results: the supplement of paper PMC3334620
In all, about 33,000 sequences were measured (“E-score (-0.5 to 0.5)”: median about -0.012, highest 2% from about 0.27 on). This is one part of the list.

molecular target: T1, Vhr1 (UniProt P40522); experiment: PBM E-score (8-mer binding enrichment) (E-score (-0.5 to 0.5)); higher = stronger / more preferred TF binding; most listed sequences are background and not binding sites; conditions: protein concentration: 200 nM; construct: GST-full length
T1 sequence: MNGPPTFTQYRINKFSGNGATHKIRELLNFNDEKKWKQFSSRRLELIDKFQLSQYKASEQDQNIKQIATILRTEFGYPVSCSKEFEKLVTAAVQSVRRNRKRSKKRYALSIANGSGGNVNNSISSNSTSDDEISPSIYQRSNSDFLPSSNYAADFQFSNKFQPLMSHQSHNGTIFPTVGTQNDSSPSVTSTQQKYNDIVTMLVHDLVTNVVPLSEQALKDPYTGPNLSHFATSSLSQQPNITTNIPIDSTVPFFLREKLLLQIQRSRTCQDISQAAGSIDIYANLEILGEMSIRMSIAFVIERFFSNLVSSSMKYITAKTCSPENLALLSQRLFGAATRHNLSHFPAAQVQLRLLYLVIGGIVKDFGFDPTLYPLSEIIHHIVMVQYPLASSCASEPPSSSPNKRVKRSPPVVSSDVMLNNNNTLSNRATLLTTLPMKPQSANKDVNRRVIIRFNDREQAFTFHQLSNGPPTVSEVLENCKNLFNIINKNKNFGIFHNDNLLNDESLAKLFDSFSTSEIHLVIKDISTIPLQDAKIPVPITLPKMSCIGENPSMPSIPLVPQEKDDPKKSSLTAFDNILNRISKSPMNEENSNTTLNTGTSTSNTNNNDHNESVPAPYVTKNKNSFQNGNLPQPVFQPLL
Method in brief: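 Masliner-normalised scans of fluorescent anti-GST signal were the basis for scoring. That signal came from GST-tagged yeast transcription factors applied at about 100-200 nM to double-stranded universal all-10-mer Agilent arrays on fresh or once-stripped slides. Each ungapped eight-base word, pooled with its reverse complement, received an E-score from the Universal PBM Analysis Suite.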

| Sequence | PBM E-score |
| --- | --- |
| CTAGCTCA | 0.0283 |
| CATGGATC | 0.124 |
| AGTATGCC | -0.0269 |
| AGGAGCAA | 0.0404 |
| CACGTGAG | -0.0791 |
| GCCCGATA | -0.144 |
| CCGCAAAG | -0.00457 |
| ACGGTTTC | -0.206 |
| GCACATAC | -0.106 |
| ACGTCTCA | 0.0563 |
| GATCTCCC | -0.0243 |
| ACAACAAT | 0.164 |
| ATGCAGTC | 0.184 |
| CACCCGAG | 0.0487 |
| ACTTGGCT | 0.0651 |
| AGCTATTC | -0.148 |
| GGCGCTCA | -0.104 |
| CTAACAGA | 0.0269 |
| AGCGACTC | 0.314 |
| GTGGTGTA | 0.0926 |
| GCTAGTCA | 0.284 |
| CGCAGAGA | -0.0714 |
| GGTGAAAA | -0.0982 |
| AATAAATA | 0.024 |
| AGCTCCTG | -0.0876 |

| Sequence | PBM E-score |
| --- | --- |
| AATAAAGG | -0.136 |
| TGAGTTAA | 0.027 |
| CCCAAGAG | -0.121 |
| AGGGCACC | -0.229 |
| AGAAGCCG | -0.108 |
| CATCAAGA | 0.113 |
| AACGTAAC | 0.0955 |
| AAAAGTCT | -0.325 |
| TGAATACA | 0.0447 |
| CAAAATAG | -0.267 |
| AGCATGGA | 0.112 |
| AGCGACAG | 0.0678 |
| TACGGCGA | 0.0569 |
| GTACAATA | -0.0957 |
| AGAGCATC | -0.131 |
| GGCGGCGA | 0.126 |
| CCGAGTAC | 0.102 |
| CCTATAAC | -0.0758 |
| AAGTCGTA | -0.0973 |
| ATATATCG | 0.137 |
| GGGGGCAA | -0.138 |
| ACTCCCTG | 0.276 |
| CAGACCTC | -0.0287 |
| CAGGGCAA | -0.216 |
| AGTCAACA | 0.19 |

| Sequence | PBM E-score |
| --- | --- |
| CGTTATAC | -0.192 |
| CCTCGGCC | 0.00422 |
| ACACCCAC | 0.254 |
| CAAATAAG | -0.203 |
| AGTAACTA | 0.158 |
| ATTAGATG | 0.00509 |
| CATTCAAC | -0.00493 |
| TAAGGGAA | -0.177 |
| CATCCGGC | 0.0747 |
| TTAAAGAA | -0.123 |
| ATACTCTA | 0.00935 |
| GTCGCCGA | -0.0286 |
| AACCCGTC | -0.193 |
| GCAGTAAC | 0.00755 |
| ACTTCAAC | -0.127 |
| GAGACACA | 0.14 |
| AAAAACTA | -0.0842 |
| TCACTAGA | 0.0881 |
| CTTAGTCC | 0.0119 |
| TAGCCGAA | -0.0303 |
| TACCGCTA | 0.0257 |
| CGTGTGGA | -0.0696 |
| AGAACCGC | 0.0727 |
| AGACACTC | 0.00724 |
| CAGTAATG | 0.0368 |

| Sequence | PBM E-score |
| --- | --- |
| ACCGCCTC | -0.0119 |
| AAGGCAAC | 0.0171 |
| ACGGGACA | 0.00889 |
| CAGATTTA | 0.169 |
| AAGGTCGC | -0.184 |
| ACAGATCT | 0.0459 |
| CTATTCAG | -0.0626 |
| AGAGGGGC | -0.188 |
| GCTGTAAC | 0.116 |
| AATCACCC | 0.38 |
| AAAGATAC | 0.0157 |
| GTGCATAA | -0.143 |
| GTGGTCCA | 0.195 |
| ACCAAACT | 0.0251 |
| ACCATGAA | 0.276 |
| AGTTGGCC | -0.0117 |
| GCTTCCAC | -0.181 |
| CGGGCGCC | 0.0834 |
| ATGCCAGA | 0.0397 |
| AATTGAGG | -0.233 |
| AAGATCCT | -0.0308 |
| GCCCAAGA | -0.188 |
| ATATATCA | 0.0989 |
| TACCGCGA | 0.107 |
| GTGAAAGA | -0.0844 |

| Sequence | PBM E-score |
| --- | --- |
| CTGACCTC | -0.0456 |
| AGTAGTTG | 0.29 |
| AAATCGTG | 0.0765 |
| GATGTCCA | 0.0381 |
| TGAGTGAA | 0.124 |
| GTAGGGCA | -0.163 |
| ATCCCTTG | -0.0751 |
| CAAGGAAG | -0.117 |
| GAGATACC | 0.0895 |
| ATCAGAAG | -0.106 |
| AGGCAGCG | -0.0538 |
| CACCTCAC | -0.027 |
| CTTGTATC | -0.123 |
| GCCGGACC | 0.0322 |
| ACCAATCT | 0.188 |
| CTGATGAC | 0.19 |
| GCGGATGA | 0.15 |
| ATACAATA | 0.249 |
| ACCCTCGC | -0.113 |
| CATGAGAG | 0.147 |
| AGGCGTTG | -0.216 |
| ACACCTCC | 0.0644 |
| GTGGATCA | 0.0417 |
| AAAAAACG | -0.173 |
| AACCTCCC | -0.0164 |

| Sequence | PBM E-score |
| --- | --- |
| CGGTGATA | 0.0139 |
| GGAATTTA | -0.0832 |
| AAGCAACT | -0.208 |
| CTATCGCC | -0.211 |
| CAGATTCC | -0.102 |
| CGCTAATC | 0.0168 |
| CCGTTAGC | -0.121 |
| GCACCTCA | -0.0962 |
| CATCTTAA | -0.0309 |
| CGAGGTAG | -0.137 |
| AACCTGAG | -0.0364 |
| CTCAACGC | -0.0297 |
| AAATGACG | 0.0757 |
| CGCTTCAG | -0.00511 |
| CCAGGATA | 0.132 |
| CATGCGGA | -0.0312 |
| AGTGCACC | 0.087 |
| ACACACAG | 0.353 |
| ACGTTATA | 0.0245 |
| ATGATGAG | 0.196 |
| CAGCACGC | -0.172 |
| CGCACCCA | 0.147 |
| GTCTACTA | 0.148 |
| ACAACGGC | -0.105 |
| ACAACCCA | 0.149 |

| Sequence | PBM E-score |
| --- | --- |
| AGTGCATC | -0.0425 |
| AAGGGAGG | -0.0787 |
| AAGGCGGA | 0.0113 |
| CGTCGACG | 0.161 |
| GTAGTTGA | 0.277 |
| CATTAGTC | 0.257 |
| ACCGTTGG | -0.0468 |
| ACATGAGG | -0.0901 |
| CTTTTACA | -0.0481 |
| ATCCCACA | -0.00784 |
| ATTCAGCC | -0.00318 |
| ACGGGGTC | 0.0818 |
| ACGGCGCA | 0.175 |
| CGAAAGAC | -0.118 |
| GGTGTAAC | 0.0727 |
| GAAAGAGC | -0.247 |
| CCCAAACG | -0.0262 |
| ATGCACGG | -0.0284 |
| CCCACGGC | -0.0881 |
| GCAGGCCA | 0.117 |
| GAATATGA | -0.00634 |
| AGGGTCTA | -0.177 |
| CATGCCCG | 0.0303 |
| GCAAAATA | 0.00706 |
| GCAATAGC | 0.116 |

| Sequence | PBM E-score |
| --- | --- |
| CGCAATGA | 0.102 |
| ATCAGTAA | 0.155 |
| CTTCTTCA | -0.0905 |
| GGTCGACC | 0.32 |
| AGAATAAA | -0.169 |
| ACAGAGTG | 0.0123 |
| AATGATAT | 0.197 |
| GTGCCTAA | -0.322 |
| GACGGCTA | -0.00215 |
| AGGGACAT | 0.0563 |
| TAAGAATA | -0.162 |
| ATGCGTCG | 0.0303 |
| CAGTAAAA | -0.136 |
| ATCGTGAA | -0.112 |
| ACGGTATC | 0.108 |
| CCGATAGA | -0.121 |
| CCTTTAGA | -0.269 |
| CAACAACG | 0.087 |
| CATCATAA | 0.133 |
| AACGGCCC | -0.027 |
| CCAGAAAA | -0.0398 |
| CTAATGAC | -0.00978 |
| CCGTGGTA | 0.0539 |
| GCGGTACC | 0.0294 |
| GTCGTGAA | -0.256 |

| Sequence | PBM E-score |
| --- | --- |
| TGCCAGCA | -0.0298 |
| TCACAGCA | 0.207 |
| GAATTAGC | -0.188 |
| GAGATCAC | 0.0658 |
| AGAAGTAC | -0.192 |
| AAAGTAAT | 0.129 |
| AACACACA | 0.33 |
| TGCGCAAA | -0.141 |
| AACGGCGG | 0.00313 |
| CAACAGGG | 0.0797 |
| AGCGACCG | -0.107 |
| ACCTCCGC | 0.134 |
| CAGACCAA | 0.0253 |
| CAAGGTTA | -0.175 |
| AATAATTG | 0.0205 |
| CAAGCACA | -0.00197 |
| CTTGTTCA | -0.144 |
| ATAACGAA | 0.0305 |
| CCGTACGG | -0.385 |
